Molecules are shown by their SMILES. Hit rate of the full screen: of about 310,000 compounds, about 2,200 (0.71%) showed an effect of 50% or more. The effect is printed as a negative number. The list shows a part of the results.

Sequence of human ether-à-go-go-related gene (hERG) potassium channel (Q12809 whole entry, looked up): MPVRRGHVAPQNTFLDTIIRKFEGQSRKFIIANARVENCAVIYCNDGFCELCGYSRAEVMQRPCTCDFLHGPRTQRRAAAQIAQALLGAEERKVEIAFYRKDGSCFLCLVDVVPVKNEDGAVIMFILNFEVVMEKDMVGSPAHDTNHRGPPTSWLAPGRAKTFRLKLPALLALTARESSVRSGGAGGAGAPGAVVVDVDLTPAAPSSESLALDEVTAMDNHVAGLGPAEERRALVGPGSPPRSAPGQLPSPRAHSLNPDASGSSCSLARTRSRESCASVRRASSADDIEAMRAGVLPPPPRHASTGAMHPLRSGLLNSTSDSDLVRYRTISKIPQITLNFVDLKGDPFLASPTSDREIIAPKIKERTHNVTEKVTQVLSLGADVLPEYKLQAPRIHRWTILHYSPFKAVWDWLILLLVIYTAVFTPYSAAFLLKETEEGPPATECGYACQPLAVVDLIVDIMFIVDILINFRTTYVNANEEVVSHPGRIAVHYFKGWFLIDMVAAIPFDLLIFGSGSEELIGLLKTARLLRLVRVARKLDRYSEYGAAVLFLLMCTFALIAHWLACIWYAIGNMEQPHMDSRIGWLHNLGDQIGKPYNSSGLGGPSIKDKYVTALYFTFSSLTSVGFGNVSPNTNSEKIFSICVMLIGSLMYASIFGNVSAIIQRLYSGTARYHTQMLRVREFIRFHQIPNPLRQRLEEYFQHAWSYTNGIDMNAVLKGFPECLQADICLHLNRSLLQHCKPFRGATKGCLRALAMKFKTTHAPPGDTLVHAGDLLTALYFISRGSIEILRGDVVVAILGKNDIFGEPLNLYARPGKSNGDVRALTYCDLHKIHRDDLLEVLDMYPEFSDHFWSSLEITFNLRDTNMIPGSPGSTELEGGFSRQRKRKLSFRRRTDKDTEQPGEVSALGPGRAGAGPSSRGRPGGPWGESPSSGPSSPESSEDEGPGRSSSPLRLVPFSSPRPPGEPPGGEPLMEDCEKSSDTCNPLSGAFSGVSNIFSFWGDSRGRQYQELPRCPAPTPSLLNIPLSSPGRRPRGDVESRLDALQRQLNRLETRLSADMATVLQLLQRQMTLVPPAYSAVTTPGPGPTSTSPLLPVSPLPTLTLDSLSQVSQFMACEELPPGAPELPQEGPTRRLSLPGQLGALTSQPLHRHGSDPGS

The assay has as its target human ether-à-go-go-related gene (hERG) potassium channel (human, UniProt Q12809). The experiment in a line: primary screen, population patch clamp on CHO cells stably expressing hERG.
For the compound `COc1ccc(N(C(=O)CNC(=O)c2cccs2)C(C(=O)NC2CCCC2)c2cccnc2)cc1` (stereo not shown), the “hERG current change (%, negative = inhibition) at 1uM” value was determined as 9.45%. For `CCN(CC)c1ccc(/C=N/NC(=S)NCc2ccccc2)cc1` the value was 8.08%; for `CC1CCc2cc(F)ccc2N1C(=O)c1cc2nc(-c3ccco3)cc(C(F)(F)F)n2n1` (stereo not shown), 17.6%. For `C=C(C)CN(CC)C(=O)CCc1nnc(CCCc2ccccc2)o1`, the “hERG current change (%, negative = inhibition) at 1uM” value was found to be 10.8%.

Take `OC(Cn1cncn1)c1ccc(Cl)cc1` (stereo not shown): the “hERG current change (%, negative = inhibition) at 1uM” value turned out to be 7.62%.

Regarding `O=C(CNc1cc(S(=O)(=O)N2CCCC2)ccc1OCC(F)(F)F)Nc1cc(Cl)cc(Cl)c1`, the “hERG current change (%, negative = inhibition) at 1uM” value amounted to 3.7%. For `CC(=O)Nc1ccc(S(=O)(=O)NCCC(=O)Nc2ccc(C)cn2)cc1` the value was 8.79%; for `CCOC(=O)c1cccc(NC(=O)N[C@@H](C)C(=O)OC)c1`, 12.2%. For `COC(=O)c1ccc(C(C(=O)NC2CCCCC2)N(Cc2ccccc2)C(=O)Cc2cccs2)cc1` (stereo not shown), the “hERG current change (%, negative = inhibition) at 1uM” value is reported as 5.76%. As for `CCOc1ccc(S(=O)(=O)Nc2ccccc2C(=O)N/N=C/c2c(OC)ccc3ccccc23)cc1`, the “hERG current change (%, negative = inhibition) at 1uM” value is 2.25%. `CCC(C)c1ccc(NC(=O)c2cccnc2)cc1` (stereo not shown): the “hERG current change (%, negative = inhibition) at 1uM” value came out at 7.26%. As for `CCOc1ccc(C2N(c3ccc(Cl)cc3)C(=O)C3CCCN32)cc1OC` (stereo not shown), the “hERG current change (%, negative = inhibition) at 1uM” value is listed as 0.943%. For `CCS(=O)(=O)Nc1ccc(-c2ccc(NS(=O)(=O)CC)c(OC)c2)cc1OC`, the “hERG current change (%, negative = inhibition) at 1uM” value was 5.36%.

Regarding `Cc1ccc(Cn2c(NCCc3ccccc3)nc3c2c(=O)n(C)c(=O)n3C)cc1`, the “hERG current change (%, negative = inhibition) at 1uM” value was 12.5%.

As for `CCN(CC)CCN=CC1=C(O)CNC1=O`, the “hERG current change (%, negative = inhibition) at 1uM” value is 8.36%. Next, `CCCOc1ccc(N2C(=O)CC(N(CCCO)C(=O)CC)C2=O)cc1` (stereo not shown): 18.8%. For `COc1ccc(C)cc1NC(=O)Nc1ccncc1` the value was 12.1%; for `CC(=O)c1ccc(S(=O)(=O)N2CCC(c3nnc(SCCN4CCCC4)n3C)CC2)cc1`, 13.5%; for `CCOC(=O)C1=C(C)N=c2s/c(=C\c3ccc(OCC(=O)O)cc3)c(=O)n2C1c1ccccc1` (stereo not shown), 14.6%.

As for `O=C(COc1ccccc1)N1CCN(c2ncnc3c2cnn3-c2ccccc2)CC1`, the “hERG current change (%, negative = inhibition) at 1uM” value was -18.9%. Next, `CCOc1c(C)cnc2c1c(=O)n(Cc1c(F)cccc1Cl)c(=O)n2C`: 7.13%.

On to `CCc1ccc(-c2cc(C)no2)cc1S(=O)(=O)N1CCN(c2ccccn2)CC1`, for which the “hERG current change (%, negative = inhibition) at 1uM” value was determined as 13%. With `COC(=O)Cc1c(C)c2ccc(OCC(=O)NCc3ccc4c(c3)OCO4)cc2oc1=O`, the “hERG current change (%, negative = inhibition) at 1uM” value is 10%. Regarding `COCCN(CC(=O)Nc1cccc(C)c1C)C(=O)CN1C(=O)NC2(CCCCC2)C1=O`, the “hERG current change (%, negative = inhibition) at 1uM” value turned out to be 15.9%. `COc1cc(C2/C(=C(\O)c3ccc4c(c3)OCCO4)C(=O)C(=O)N2Cc2ccco2)ccc1O` (stereo not shown): the “hERG current change (%, negative = inhibition) at 1uM” value was 11.6%. Consider `Cc1nc2sccn2c(=O)c1S(=O)(=O)NCCc1ccccc1`, for which the “hERG current change (%, negative = inhibition) at 1uM” value was -10.2%. `O=C(NC(=O)N1CCN(c2ccccc2)CC1)c1ccc(Cl)cc1`: the “hERG current change (%, negative = inhibition) at 1uM” value amounted to 4.57%. With `CC(Oc1ccc(C(C)(C)C)cc1)c1ccnc2nc(/N=C/N(C)C)nn12` (stereo not shown), the “hERG current change (%, negative = inhibition) at 1uM” value is recorded as -8.58%. On to `CC1CCC(NC(=O)c2ccc(NC(=O)CC3SC(N4CCCC4)=NC3=O)cc2)CC1` (stereo not shown), for which the “hERG current change (%, negative = inhibition) at 1uM” value worked out at 12%. Take `CCOC(=O)C1CCCN(C(=O)c2ccc(C)cc2O)C1` (stereo not shown): the “hERG current change (%, negative = inhibition) at 1uM” value came out at 4.54%. As to `CC(=O)C1=C(O)C(=O)N(CCC(=O)O)C1c1ccc(Cl)cc1Cl` (stereo not shown), the “hERG current change (%, negative = inhibition) at 1uM” value came to 15.3%. With `COc1cc(C=C2C(=O)NC(=O)NC2=O)ccc1OS(=O)(=O)c1ccccc1[N+](=O)[O-]`, the “hERG current change (%, negative = inhibition) at 1uM” value is given as 13.6%. For the compound `Cc1cc(C(=O)Nn2cnnc2)ccc1[N+](=O)[O-]`, the “hERG current change (%, negative = inhibition) at 1uM” value is given as 13.1%. In the case of `O=C(CSc1nnc(-c2ccco2)n1-c1ccccc1)N1CCN(C(=O)c2ccco2)CC1`, the “hERG current change (%, negative = inhibition) at 1uM” value is given as 4.92%. For `CCN(CC)S(=O)(=O)c1ccc(N2CCOCC2)c(NC(=O)COc2ccc(OC)cc2)c1` the value was -4.52%.

Take `O=c1ncn(-c2ccc(F)cc2)c2ncccc12`: the “hERG current change (%, negative = inhibition) at 1uM” value is listed as -3.2%.

Consider `NC(N)=Nc1nc(-c2ccccc2)c2cc(F)ccc2n1`, for which the “hERG current change (%, negative = inhibition) at 1uM” value was -15%. On to `NS(=O)(=O)c1ccc(CNC(=O)C23CC4CC(CC(C4)C2)C3)cc1`, for which the “hERG current change (%, negative = inhibition) at 1uM” value is listed as 16.5%. In the case of `O=C(O)c1ccccc1SCc1ccc2c(c1)OCO2`, the “hERG current change (%, negative = inhibition) at 1uM” value is on record as 4.59%.

With `CN1C(=O)c2ccc(C(=O)Nc3cccnc3)cc2C1=O`, the “hERG current change (%, negative = inhibition) at 1uM” value is 8.96%. `Cc1ccc(NC(=S)N2CCC(c3ccccc3)C2)c(Cl)c1` (stereo not shown): the “hERG current change (%, negative = inhibition) at 1uM” value is given as 7.63%.

`Cc1cc(C)nc(Nc2nc(C)c3cc4c(cc3n2)OCO4)n1`: the “hERG current change (%, negative = inhibition) at 1uM” value stood at 2.4%.

Consider `Cc1ccnc(NS(=O)(=O)c2ccc(NC(=O)c3c(-c4ccccc4Cl)noc3C)cc2)n1`, for which the “hERG current change (%, negative = inhibition) at 1uM” value was 6.93%.

As to `Cc1cc2nc(-c3ccc(SCC(=O)NC(C)C)nc3)[nH]c2cc1C`, the “hERG current change (%, negative = inhibition) at 1uM” value stood at 6.59%.

Turning to `Cc1oncc1-c1csc(-c2ccccc2Cl)n1`, the “hERG current change (%, negative = inhibition) at 1uM” value is reported as 3.03%. As for `O=C(CCl)N(C/C=C/c1ccccc1)c1ccc2c(c1)OCCO2`, the “hERG current change (%, negative = inhibition) at 1uM” value is given as 6.18%.

Turning to `CCOC(=O)c1cc(S(=O)(=O)N2CC(C)CC(C)C2)cn1C` (stereo not shown), the “hERG current change (%, negative = inhibition) at 1uM” value stood at 11.5%. As to `COC(=O)c1cc2sccc2n1Cc1nc(-c2cccc(Cl)c2)oc1C`, the “hERG current change (%, negative = inhibition) at 1uM” value is 16.5%. Take `O=C(NNC(=O)c1ccco1)c1cccc([N+](=O)[O-])c1`: the “hERG current change (%, negative = inhibition) at 1uM” value was found to be 16.6%. For `Cc1ccc2oc(Nc3nc(C)c(C)c(C)n3)nc2c1`, the “hERG current change (%, negative = inhibition) at 1uM” value is recorded as 15.9%. Take `C/C(=N\NC(=O)c1cc(C)nc2ccccc12)c1cccc(Cl)c1`: the “hERG current change (%, negative = inhibition) at 1uM” value is reported as 19.9%. For `Cc1ccc(C)c(N2CCN(S(=O)(=O)CC34CCC(CC3=O)C4(C)C)CC2)c1` (stereo not shown) the value was 14.2%. Next, `Cc1nnnn1CC(=O)Nc1ccccc1[N+](=O)[O-]`: 8.11%; `CC(=O)Nc1ccc(C(=O)OCc2ccccc2Cl)cc1`: 0.0329%. For `N#Cc1ccccc1Sc1ccccc1C(=O)NCC(c1ccco1)N1CCCCC1` (stereo not shown) the value was 9.86%.

The values are drawn from paper PMC4336329 (PLoS ONE, 2015).
